In the supplement of paper PMC11741623:
The list shows a part of the results. Interaction screen of human proteins with wild-type SARS-CoV-2 proteins by split-DHFR complementation in yeast, 1 µg/mL methotrexate. Value = fitness of the pair (three or more lineages) minus that of the viral protein without a human partner, on a scale set by negative (0) and fused positive (1) controls, mean of up to three cultures; higher = more likely to interact. Active = false discovery rate below 0.05 (one-sided t-test) in at least one culture. Nearly all pairs are not hits, and differences among them are mostly noise (correlation between cultures about 0.3); most hits were seen in one culture only. Human sequences are the Swiss-Prot entries looked up by gene name; the clone may be another isoform. NSP2 values were corrected by the authors for a growth advantage. Listed are human proteins with a hit and a random twelfth of the others.

B1: TUBG2, Q9NRH3 (protein)
chain: MPREIITLQLGQCGNQIGFEFWKQLCAEHGISPEGIVEEFATEGTDRKDVFFYQADDEHYIPRAVLLDLEPRVIHSILNSPYAKLYNPENIYLSEHGGGAGNNWASGFSQGEKIHEDIFDIIDREADGSDSLEGFVLCHSIAGGTGSGLGSYLLERLNDRYPKKLVQTYSVFPYQDEMSDVVVQPYNSLLTLKRLTQNADCVVVLDNTALNRIATDRLHIQNPSFSQINQLVSTIMSASTTTLRYPGYMNNDLIGLIASLIPTPRLHFLMTGYTPLTTDQSVASVRKTTVLDVMRRLLQPKNVMVSTGRDRQTNHCYIAILNIIQGEVDPTQVHKSLQRIRERKLANFIPWGPASIQVALSRKSPYLPSAHRVSGLMMANHTSISSLFESSCQQFDKLRKRDAFLEQFRKEDMFKDNFDEMDRSREVVQELIDEYHAATQPDYISWGTQEQ
B2: RCBTB2, O95199 (protein)
chain: MEEELPLFSGDSGKPVQATLSSLKMLDVGKWPIFSLCSEEELQLIRQACVFGSAGNEVLYTTVNDEIFVLGTNCCGCLGLGDVQSTIEPRRLDSLNGKKIACLSYGSGPHIVLATTEGEVFTWGHNAYSQLGNGTTNHGLVPCHISTNLSNKQVIEVACGSYHSLVLTSDGEVFAWGYNNSGQVGSGSTVNQPIPRRVTGCLQNKVVVTIACGQMCCMAVVDTGEVYVWGYNGNGQLGLGNSGNQPTPCRVAALQGIRVQRVACGYAHTLVLTDEGQVYAWGANSYGQLGTGNKSNQSYPTPVTVEKDRIIEIAACHSTHTSAAKTQGGHVYMWGQCRGQSVILPHLTHFSCTDDVFACFATPAVTWRLLSVEPDDHLTVAESLKREFDNPDTADLKFLVDGKYIYAHKVLLKIRCEHFRSSLEDNEDDIVEMSEFSYPVYRAFLEYLYTDSISLSPEEAVGLLDLATFYRENRLKKLCQQTIKQGICEENAIALLSAAVKYDAQDLEEFCFRFCINHLTVVTQTSGFAEMDHDLLKNFISKASRVGAFKN
B3: CACNG3, O60359 (protein)
chain: MRMCDRGIQMLITTVGAFAAFSLMTIAVGTDYWLYSRGVCRTKSTSDNETSRKNEEVMTHSGLWRTCCLEGAFRGVCKKIDHFPEDADYEQDTAEYLLRAVRASSVFPILSVTLLFFGGLCVAASEFHRSRHNVILSAGIFFVSAGLSNIIGIIVYISANAGDPGQRDSKKSYSYGWSFYFGAFSFIIAEIVGVVAVHIYIEKHQQLRAKSHSEFLKKSTFARLPPYRYRFRRRSSSRSTEPRSRDLSPISKGFHTIPSTDISMFTLSRDPSKITMGTLLNSDRDHAFLQFHNSTPKEFKESLHNNPANRRTTPV
B4: RAB32, Q13637 (protein)
chain: MAGGGAGDPGLGAAAAPAPETREHLFKVLVIGELGVGKTSIIKRYVHQLFSQHYRATIGVDFALKVLNWDSRTLVRLQLWDIAGQERFGNMTRVYYKEAVGAFVVFDISRSSTFEAVLKWKSDLDSKVHLPNGSPIPAVLLANKCDQNKDSSQSPSQVDQFCKEHGFAGWFETSAKDNINIEEAARFLVEKILVNHQSFPNEENDVDKIKLDQETLRAENKSQCC
B5: TSPAN5, P62079 (protein)
chain: MSGKHYKGPEVSCCIKYFIFGFNVIFWFLGITFLGIGLWAWNEKGVLSNISSITDLGGFDPVWLFLVVGGVMFILGFAGCIGALRENTFLLKFFSVFLGIIFFLELTAGVLAFVFKDWIKDQLYFFINNNIRAYRDDIDLQNLIDFTQEYWQCCGAFGADDWNLNIYFNCTDSNASRERCGVPFSCCTKDPAEDVINTQCGYDARQKPEVDQQIVIYTKGCVPQFEKWLQDNLTIVAGIFIGIALLQIFGICLAQNLVSDIEAVRASW

What was measured:
Assay in all cases: yeast fitness gain over the viral ORF with no human partner (scaled fitness); higher = more likely to interact
SARS-CoV-2 E = target: SARS-CoV-2 E
Method: (§1)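 Split mouse DHFR complementation in pooled diploid yeast: human ORFeome clones carry one fragment and viral ORFs the other; barcoded lineages compete in 1 µg/mL methotrexate and fitness is read by barcode sequencing in up to three cultures.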

SARS-CoV-2 M = target: SARS-CoV-2 M
Method: as §1

SARS-CoV-2 N = target: SARS-CoV-2 N
Method: as §1

SARS-CoV-2 NSP1 = target: SARS-CoV-2 NSP1
Method: as §1

SARS-CoV-2 NSP10 = target: SARS-CoV-2 NSP10
Method: as §1

SARS-CoV-2 NSP12 = target: SARS-CoV-2 NSP12
Method: as §1

SARS-CoV-2 NSP13 = target: SARS-CoV-2 NSP13
Method: as §1

SARS-CoV-2 NSP14 = target: SARS-CoV-2 NSP14
Method: as §1

SARS-CoV-2 NSP15 = target: SARS-CoV-2 NSP15
Method: as §1

SARS-CoV-2 NSP16 = target: SARS-CoV-2 NSP16
Method: as §1

SARS-CoV-2 NSP2 = target: SARS-CoV-2 NSP2
Method: as §1

SARS-CoV-2 NSP4 = target: SARS-CoV-2 NSP4
Method: as §1

SARS-CoV-2 NSP5 = target: SARS-CoV-2 NSP5
Method: as §1

SARS-CoV-2 NSP6 = target: SARS-CoV-2 NSP6
Method: as §1

SARS-CoV-2 NSP7 = target: SARS-CoV-2 NSP7
Method: as §1

SARS-CoV-2 NSP8 = target: SARS-CoV-2 NSP8
Method: as §1

SARS-CoV-2 NSP9 = target: SARS-CoV-2 NSP9
Method: as §1

SARS-CoV-2 ORF10 = target: SARS-CoV-2 ORF10
Method: as §1

SARS-CoV-2 ORF3A = target: SARS-CoV-2 ORF3A
Method: as §1

SARS-CoV-2 ORF3B = target: SARS-CoV-2 ORF3B
Method: as §1

SARS-CoV-2 ORF6 = target: SARS-CoV-2 ORF6
Method: as §1

SARS-CoV-2 ORF7A = target: SARS-CoV-2 ORF7A
Method: as §1

SARS-CoV-2 ORF7B = target: SARS-CoV-2 ORF7B
Method: as §1

SARS-CoV-2 ORF8 = target: SARS-CoV-2 ORF8
Method: as §1

SARS-CoV-2 ORF9B = target: SARS-CoV-2 ORF9B
Method: as §1

[1] = target: SARS-CoV-2 ORF9Bwu (the 73-codon ORF)
Method: as §1

SARS-CoV-2 S = target: SARS-CoV-2 S
Method: as §1

Binder | yeast fitness gain (SARS-CoV-2 E) | yeast fitness gain (SARS-CoV-2 M) | yeast fitness gain (SARS-CoV-2 N) | yeast fitness gain (SARS-CoV-2 NSP1) | yeast fitness gain (SARS-CoV-2 NSP10) | yeast fitness gain (SARS-CoV-2 NSP12) | yeast fitness gain (SARS-CoV-2 NSP13) | yeast fitness gain (SARS-CoV-2 NSP14) | yeast fitness gain (SARS-CoV-2 NSP15) | yeast fitness gain (SARS-CoV-2 NSP16) | yeast fitness gain (SARS-CoV-2 NSP2) | yeast fitness gain (SARS-CoV-2 NSP4) | yeast fitness gain (SARS-CoV-2 NSP5) | yeast fitness gain (SARS-CoV-2 NSP6) | yeast fitness gain (SARS-CoV-2 NSP7) | yeast fitness gain (SARS-CoV-2 NSP8) | yeast fitness gain (SARS-CoV-2 NSP9) | yeast fitness gain (SARS-CoV-2 ORF10) | yeast fitness gain (SARS-CoV-2 ORF3A) | yeast fitness gain (SARS-CoV-2 ORF3B) | yeast fitness gain (SARS-CoV-2 ORF6) | yeast fitness gain (SARS-CoV-2 ORF7A) | yeast fitness gain (SARS-CoV-2 ORF7B) | yeast fitness gain (SARS-CoV-2 ORF8) | yeast fitness gain (SARS-CoV-2 ORF9B) | yeast fitness gain [1] | yeast fitness gain (SARS-CoV-2 S)
B1 | inactive: 0.0476 | inactive: 0.00564 | inactive: 0.02 | inactive: -0.0298 | inactive: 0.0391 | inactive: 0.0328 | inactive: 0.0601 | inactive: 0.0777 | inactive: -0.0433 | inactive: 0.00282 | inactive: -0.109 | inactive: 0.0595 | inactive: 0.0276 | inactive: 0.00297 | inactive: -0.0217 | inactive: 0.000993 | inactive: -0.012 | inactive: 0.0233 | inactive: 0.0599 | inactive: 0.102 | inactive: 0.0543 | inactive: -0.00877 | inactive: 0.0382 | inactive: -0.0396 | inactive: 0.00779 | inactive: -0.0671 | inactive: 0.0103
B2 |  | inactive: 0.0974 |  | inactive: 0.0214 |  | inactive: 0.103 | inactive: 0.0429 | inactive: 0.0791 |  | inactive: 0.0277 | inactive: 0.0867 | inactive: 0.0466 | inactive: 0.106 |  |  | inactive: -0.0754 | inactive: 0.067 | inactive: -0.0925 |  | inactive: 0.0309 | inactive: 0.00184 |  | inactive: 0.0166 | inactive: 0.000257 | inactive: 0.0326 |  | inactive: -0.044
B3 |  | inactive: 0.0245 |  |  |  | inactive: 0.117 | inactive: -0.0149 |  |  |  | inactive: -0.166 |  | inactive: -0.0358 |  | inactive: 0.0315 |  |  |  |  | inactive: 0.0851 | inactive: -0.0702 |  |  | inactive: -0.0136 | inactive: -0.0331 |  | inactive: 0.0505
B4 |  | inactive: 0.128 |  |  |  |  | inactive: -0.0796 |  |  |  | inactive: -0.111 |  | inactive: -0.025 | inactive: -0.222 |  |  |  | inactive: 0.0108 |  | inactive: 0.0868 |  |  | inactive: -0.0463 |  | inactive: 0.133 |  | 
B5 | inactive: 0.257 | inactive: 0.0781 | inactive: 0.0457 | inactive: -0.0424 | inactive: 0.0332 | inactive: -0.0595 | inactive: 0.0443 | inactive: 0.172 | inactive: 0.0159 | inactive: -0.0876 | inactive: -0.164 | inactive: 0.492 | inactive: 0.00945 | inactive: 0.12 | inactive: 0.0588 | inactive: -0.0757 | inactive: 0.0472 | inactive: -0.0167 | inactive: 0.0996 | inactive: -0.0399 | inactive: -0.00351 | inactive: 0.592 | active: 0.27 | inactive: -0.0371 | inactive: 0.056 | inactive: 0.081 | inactive: 0.0242
